The campaign covered roughly 420,000 compounds. About 64,000 (15%) were called active. This list was built around the results that the source calls inconclusive (neither active nor inactive); the mix of calls is not that of the screen. Calls come from the whole dose curve; as a rule, active = well fitted inhibition curve with a large enough effect; inconclusive = small, poorly fitted or top-dose-only effect; inactive = flat fitted curve, though single readings scatter. Potencies of inconclusive entries are left out as doubtful fits. More than one record can exist for a structure, and the calls need not agree.
Assay: qHTS for Inhibitors of human tyrosyl-DNA phosphodiesterase 1 (TDP1): qHTS in cells in absence of CPT; note: nearly all actives have a fitted effect of over 55% in size
Conditions: DT40 Tdp1-/- hTDP1 cells, no CPT, ATP luminescence, 48 h; series mostly up to 46.2 µM
Procedure, shortened: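 DT40 Tdp1-/-;hTDP1 cells, no CPT (DMSO vehicle only), 400 cells/well; compounds pin-transferred; ≥48 hr, 37 °C; CellTiter-Glo 30 min RT dark, luminescence read.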
Potency is the fitted concentration of half-maximal effect; tags give direction and shape of the fitted curve.

SMILES	Potency
O=C(/C=C/c1cccs1)c1cc(Cl)ccc1OC(=O)N1CCOCC1	active: 16.4 µM
Cc1c2cnn(CC(=O)N3CCC4(CC3)OCCO4)c(=O)c2c(C)n1Cc1ccccc1F	inconclusive [inhibitor, single point]
COC(=O)C1=C(c2ccc3ccccc3c2)C[C@@H]2CC[C@H]1N2C(=O)N1CCOCC1	active: 5.8 µM
COc1cc(C(=O)NC(=S)N2C[C@H]3C[C@H](C2)c2cccc(=O)n2C3)cc(OC)c1OC	inactive
COC(=O)C1=C(c2ccc(OC)c(OC)c2)C[C@@H]2CC[C@H]1N2C(=O)NCc1cccc2ccccc12	inconclusive [inhibitor, partial curve, poor fit]
Cc1nc2cc(-c3ccc(Cl)cc3)nn2c(C)c1CCC(=O)N1CCC2(CC1)OCCO2	active: 20.6 µM
Cc1nnc(NC(=O)c2cccn(Cc3cccc([N+](=O)[O-])c3)c2=O)s1	inactive
COc1ccc(-n2c(Cc3ccccc3)nc3ccccc3c2=O)cc1	inconclusive [inhibitor, single point]
CCOc1ccc(CC(=O)Nc2ccc3c(c2)N(C)C(=O)c2ccccc2S3)cc1OCC	inconclusive [inhibitor, single point]
O=C1CN(C(=O)COC(=O)Cc2ccccc2)c2ccccc2N1	inconclusive [inhibitor, single point]
CCOC(=O)c1nc2ccccc2c(=O)n1-c1ccc(C)cc1	inconclusive [inhibitor, single point]
COc1ccc(C(=O)C(C)(C)NO)cc1	inconclusive [inhibitor, single point]
Cc1ccc(C2(O)CCN3CCCCC32)cc1 (configuration not stated)	inactive
CCOCCN1CCC(OC(C)=O)C(C)C1 (configuration not stated)	inactive
CCN(CC)CCCNC(=O)c1c(O)c2ccccc2n(Cc2ccccc2)c1=O	active: 23.1 µM
CNC(=O)Oc1ccc(N(C)C)cc1C(C)C	inactive
O=C1NC(=O)C(CCc2ccncc2)(CCc2ccncc2)C(=O)N1Cc1ccc(F)cc1	inconclusive [inhibitor, single point]
C#CCN(C)C(C)Cc1ccccc1 (configuration not stated)	active: 3.66 µM
Cc1ccc(OP(=O)(Nc2cccc(C)c2)Oc2ccc(C)cc2)cc1	inconclusive [inhibitor, single point]
COC(=O)COc1ccc(Cl)cc1Cl	inactive
Cc1cccc(NC2=NCCCS2)c1C	inactive
O=P1(N(CCCl)CCCl)NC(OO)CCO1 (configuration not stated)	inconclusive [inhibitor, single point]
N=C1c2ccccc2CN1CC(=O)c1ccccc1	inconclusive [inhibitor, partial curve]
COC(=O)/C=C\C(=O)N[C@@H]1CC[C@@]2(O)[C@H]3Cc4ccc(O)c5c4[C@@]2(CCN3CC2CC2)[C@@H]1O5	inconclusive [inhibitor, partial curve, poor fit]

SMILES	Potency
CC(Oc1ccc(Br)cc1)C(=O)N(Cc1nc(-c2ccccc2)no1)C(C)C (configuration not stated)	inconclusive [inhibitor, single point]
S=C(S)N1CCCC1	active: 0.0531 µM
CC(C)CN1CCC2(CC1)CCN(C(=O)Oc1ccccc1)CC2	inactive
COC(=O)C1=C(c2ccc(-c3ccccc3)c(F)c2)C[C@@H]2CC[C@H]1N2C(=O)NCc1cc(C)oc1C(F)(F)F	active: 14.6 µM
COc1ccc(F)cc1CN1CCN(C(=O)CCC(=O)Nc2nnc(CC(C)C)s2)CC1	inconclusive [inhibitor, partial curve]
Nc1c(C(=O)NCc2ccco2)c2nc3ccccc3nc2n1CCN1CCOCC1	inconclusive [inhibitor, partial curve]
O=c1c2ccccc2nc(/C=C/c2ccc(F)cc2)n1-c1ccccc1O	active: 16.4 µM
NC(N)=NC(=O)c1nc(Cl)c(N)nc1N	active: 0.58 µM
S=C(Nc1ccccc1)Nc1cccc(Br)c1	inconclusive [inhibitor, single point]
COc1cccc(C2Nc3ccccc3C(=O)N2Cc2ccccc2)c1 (configuration not stated)	inconclusive [inhibitor, partial curve]
COCCn1c(-c2ccccc2)cc(C(=O)O)c1C	inconclusive [inhibitor, single point]
CC(=O)N1CC(=O)Nc2ccc(Cl)cc2C1c1ccccc1 (configuration not stated)	inactive
Cc1nc2ccc(Cl)cc2c(-c2ccccc2)c1C(=O)O	inconclusive [inhibitor, single point]
Cc1cc(=O)oc2c1c(C)nn2-c1nn[nH]n1	inconclusive [inhibitor, single point]
Cc1ccc(S(=O)(=O)N2Cc3ccccc3-n3nncc3C2)cc1	inconclusive [inhibitor, single point]
Cc1cc(C)cc(NC(=O)CCNC(=O)N2C[C@H]3C[C@@H](C2)c2cccc(=O)n2C3)c1	inactive
Cc1c(C(=O)NCCC2=CCCCC2)oc2ccc(S(=O)(=O)N3CCC4(CC3)OCCO4)cc12	active: 23.1 µM
C[C@H]1C[C@@H](C)C(=O)[C@@H]([C@H](O)CC2CC(=O)NC(=O)C2)C1	active: 0.184 µM
O=C1C(I)=CC(=C(c2cc(I)c(O)c(I)c2)c2ccccc2C(=O)O)C=C1I	inconclusive [inhibitor, single point]
CCCCCCCCCCCCCC(=O)OC1C(C)[C@@]2(O)C(C=C(CO)C[C@]3(O)C(=O)C(C)=C[C@H]23)[C@@H]2C(C)(C)[C@]12OC(C)=O (some centres not stated)	inconclusive [inhibitor, full curve, poor fit]
CC1(C)C(c2ccccc2)=NC(c2cccnc2)N1O (configuration not stated)	inconclusive [inhibitor, single point]
Cc1ccc(Cn2nnnc2CN2CCC(n3nnc4cc(C)ccc43)CC2)cc1	inconclusive [inhibitor, single point]
CC[C@H]1[C@@H]2C[C@H]3[C@@H]4N(C)c5ccccc5[C@]45C[C@@H](C2[C@H]5O)N3[C@@H]1O (some centres not stated)	inactive
